Reference: the supplement of paper PMC4166925
± gives the standard deviation of the averaged measurements. In all, about 33,000 sequences were measured (“E-score (dimensionless, -0.5 to 0.5)”: median about -0.046, highest 2% from about 0.36 on). This is one part of the list.

Test system: T1, SpTbr T-box DNA-binding domain (GST fusion)
T1 sequence: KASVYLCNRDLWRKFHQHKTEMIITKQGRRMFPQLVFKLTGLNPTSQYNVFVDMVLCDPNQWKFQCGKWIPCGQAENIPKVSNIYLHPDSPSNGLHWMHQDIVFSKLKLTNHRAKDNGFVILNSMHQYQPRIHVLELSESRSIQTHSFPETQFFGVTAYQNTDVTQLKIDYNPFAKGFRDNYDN
Test: PBM E-score of 8-mer (E-score (dimensionless, -0.5 to 0.5)); Tbr is Tbrain of the sea star Patiria miniata (Pm) or the sea urchin Strongylocentrotus purpuratus (Sp); higher = stronger binding preference; most listed sequences are background and not binding sites
Conditions: the construct has about 5 more residues each side
Description: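 Universal protein-binding microarray (Agilent AMADID 016060, 60-bp probes with a 35-bp variable region) incubated with 200 nM GST-fused Strongylocentrotus purpuratus Tbr T-box DNA-binding domain (residues 362-554) in PBS pH 7.5. Scored for every ungapped 8-mer (given with its reverse complement) as E-score (range -0.5 to 0.5; >0.45 counts as bound) and Z-score of median probe intensity. Two replicate arrays (datasets 1 and 2).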
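Note: protein at 200 nM in PBS on universal double-stranded arrays.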

Row | Sequence | PBM E-score of 8-mer
1 | GTAATGCA | -0.234 ± 0.038
2 | CGCGTTTC | 0.0215 ± 0.06
3 | AGCGGTGC | -0.00638 ± 0.018
4 | GATATTAC | -0.119 ± 0.007
5 | CATGCAGA | -0.219 ± 0.036
6 | AATCGTAT | -0.121 ± 0.03
7 | CTAGGCTA | 0.0202 ± 0.051
8 | AGCGGCAC | 0.159 ± 0.065
9 | AGGTGTAG | 0.3922 ± 0.0034
10 | AAATATTC | -0.244 ± 0.0027
11 | GGGTAACC | -0.134 ± 0.014
12 | CGAGTAAA | 0.00249 ± 0.012
13 | GTCTGGGA | -0.214 ± 0.06
14 | AAATAGAA | -0.277 ± 0.067
15 | CCCTTGGC | 0.0774 ± 0.088
16 | CGATTTAG | -0.0612 ± 0.0077
17 | GGCACTAC | -0.0662 ± 0.00069
18 | AAGTCGGT | 0.0854 ± 0.011
19 | GCGCTAAA | 0.338 ± 0.014
20 | GTTCGTTA | 0.00848 ± 0.029
21 | CGGTTGAG | -0.0815 ± 0.017
22 | GAGTCGCC | 0.00444 ± 0.029
23 | ACTATTCC | -0.116 ± 0.015
24 | ATGTGCGG | 0.0899 ± 0.0075
25 | GGTACTGA | -0.184 ± 0.048

Row | Sequence | PBM E-score of 8-mer
26 | GGCCGAGA | 0.045 ± 0.022
27 | TGCTGGAA | -0.174 ± 0.047
28 | ACCTTGCC | 0.0093 ± 0.0029
29 | ACGCCAAC | 0.144 ± 0.021
30 | GGCGTTGA | 0.344 ± 0.013
31 | CAACACAG | 0.237 ± 0.047
32 | GTTACTGA | 0.00366 ± 0.032
33 | AGAACACG | 0.157 ± 0.045
34 | AACGCGTA | 0.182 ± 0.057
35 | AGTTTGTG | 0.0608 ± 0.0061
36 | CTCATGAA | -0.133 ± 0.02
37 | ATAAACAA | -0.0981 ± 0.098
38 | CAGGGGCA | -0.308 ± 0.062
39 | CTCCTTCA | -0.0611 ± 0.0027
40 | AGGGATAT | -0.283 ± 0.013
41 | GTCAAACA | 0.0138 ± 0.011
42 | CCCATGGC | -0.0153 ± 0.051
43 | AATTTGCA | 0.143 ± 0.086
44 | GCGTAACA | 0.11 ± 0.0016
45 | CCGTATCC | -0.137 ± 0.066
46 | CATGTGCC | 0.163 ± 0.027
47 | ATCCACGG | -0.19 ± 0.082
48 | GTCCCGTA | -0.2504 ± 0.00072
49 | CACACTAC | 0.33 ± 0.027
50 | AATTTAAC | 0.0224 ± 0.15

Row | Sequence | PBM E-score of 8-mer
51 | GTAGCATA | -0.143 ± 0.069
52 | TTAAAAAA | -0.215 ± 0.056
53 | CGAGCGAG | 0.0516 ± 0.075
54 | GTAAGGAA | -0.00673 ± 0.089
55 | ACCCCGTG | 0.191 ± 0.028
56 | CGTAATAC | -0.211 ± 0.081
57 | CCGCTGGA | -0.0646 ± 0.073
58 | ATTATTCG | -0.0594 ± 0.0069
59 | ACCTGCAT | 0.0429 ± 0.011
60 | CTAATAAG | -0.0157 ± 0.0038
61 | ATCCTCAT | -0.251 ± 0.0058
62 | AGGCAGTC | -0.189 ± 0.051
63 | GGTCCGCA | 0.0726 ± 0.011
64 | CCTTCTCC | -0.101 ± 0.032
65 | CCAACGTC | -0.115 ± 0.02
66 | CTCAATTA | -0.0839 ± 0.0076
67 | CGACACGA | 0.174 ± 0.041
68 | AACGAAGC | -0.113 ± 0.068
69 | AAACCTGT | 0.0331 ± 0.12
70 | ACTAGCAT | 0.1 ± 0.046
71 | ACATATTC | 0.203 ± 0.049
72 | CAGACGGA | -0.0782 ± 0.055
73 | CGCATACC | -0.116 ± 0.071
74 | AAGGCATG | -0.132 ± 0.037
75 | AGGCGTAA | 0.255 ± 0.051

Row | Sequence | PBM E-score of 8-mer
76 | AAAGTTTC | -0.076 ± 0.025
77 | GAGTCGCA | 0.25 ± 0.013
78 | CAGGTGAG | 0.399 ± 0.0058
79 | GGCAATGA | -0.0971 ± 0.061
80 | CACGCTGG | 0.0357 ± 0.05
81 | CAAGTACA | 0.0305 ± 0.045
82 | CTGACTTC | -0.186 ± 0.11
83 | GGCCCCAC | 0.00311 ± 0.024
84 | AGCAACCG | -0.0904 ± 0.042
85 | CATCAGGG | 0.0143 ± 0.018
86 | AACGGGCT | -0.188 ± 0.022
87 | GGTGATTA | 0.1427 ± 0.0012
88 | ACCCTCCA | 0.123 ± 0.024
89 | AATCGGCC | -0.2327 ± 0.00095
90 | CCGATCCA | -0.143 ± 0.036
91 | AACTTGCG | 0.198 ± 0.0091
92 | ATCAGACA | -0.13 ± 0.0058
93 | CTAGTTAC | -0.0796 ± 0.0019
94 | AAGGATTA | -0.152 ± 0.047
95 | GTACATTA | -0.263 ± 0.006
96 | AGGTTGAC | 0.2511 ± 0.00029
97 | AGAGATTA | -0.211 ± 0.006
98 | ACCCGACG | 0.146 ± 0.078
99 | CATAGGAG | -0.118 ± 0.044
100 | ACTAACCA | 0.0896 ± 0.03

Row | Sequence | PBM E-score of 8-mer
101 | GCGCCTAA | 0.184 ± 0.0058
102 | CACCGAAA | -0.171 ± 0.028
103 | CTCACAGC | 0.276 ± 0.0082
104 | ACCAATTG | -0.198 ± 0.016
105 | ATCTGCGG | -0.169 ± 0.013
106 | AAATCCTA | -0.335 ± 0.053
107 | AGAACCGG | -0.158 ± 0.029
108 | ACGCCTCC | 0.298 ± 0.015
109 | ATCCCCAG | -0.165 ± 0.066
110 | AGGGGGAG | -0.292 ± 0.052
111 | AGCCGTTG | -0.0395 ± 0.08
112 | ACTGAAGA | -0.076 ± 0.068
113 | ATCTGAAT | -0.0553 ± 0.039
114 | CCCGGCGC | 0.0165 ± 0.028
115 | CCGTTGCC | 0.0616 ± 0.11
116 | GGCTGTCA | 0.172 ± 0.051
117 | ACAGGGAG | -0.0772 ± 0.034
118 | CCGAACTC | -0.0845 ± 0.065
119 | AGTGCAGG | -0.141 ± 0.013
120 | AGATACCA | -0.181 ± 0.026
121 | AGCGGAAA | 0.00331 ± 0.047
122 | ACTCTCAT | -0.0274 ± 0.081
123 | CCATGTAA | -0.0586 ± 0.041
124 | TAAGGCAA | -0.0556 ± 0.081
125 | ATACCTTA | 0.1245 ± 0.00057

Row | Sequence | PBM E-score of 8-mer
126 | TCAGGCCA | -0.18 ± 0.024
127 | AGTGTTAG | 0.3895 ± 0.00056
128 | AGTCATTG | -0.0974 ± 0.017
129 | CCACGGCA | -0.0154 ± 0.051
130 | CTCCAGGC | -0.243 ± 0.015
131 | CTTGCGGC | -0.0404 ± 0.011
132 | AATCCCGG | -0.1875 ± 0.00026
133 | GGCAGCAA | -0.00479 ± 0.086
134 | ACACCCTC | 0.402 ± 0.016
135 | ATGCGACA | 0.285 ± 0.0073
136 | GGCCGGCC | -0.0942 ± 0.044
137 | GCGAACGA | 0.283 ± 0.035
138 | CTTCTGCA | 0.00227 ± 0.035
139 | ACAATTTA | 0.00098 ± 0.082
140 | AACGCACG | 0.198 ± 0.073
141 | GAATCTGA | -0.0639 ± 0.06
142 | TCACACAA | 0.435 ± 0.0069
143 | AAGTTTGA | -0.0385 ± 0.021
144 | CACGAGCC | 0.161 ± 0.064
145 | ACGTCCGA | -0.188 ± 0.025
146 | AGTCTTAC | -0.143 ± 0.023
147 | AGCTTGCA | 0.00328 ± 0.058
148 | AAGATGTC | 0.0818 ± 0.083
149 | AATCGTGT | 0.18 ± 0.022
150 | CTTTCCAA | -0.339 ± 0.0049

Row | Sequence | PBM E-score of 8-mer
151 | AAGCACAT | 0.0379 ± 0.027
152 | AACTCGGA | -0.136 ± 0.053
153 | AGACGTCA | -0.142 ± 0.046
154 | CATGGTGG | 0.129 ± 0.037
155 | CGTATTCC | -0.184 ± 0.12
156 | GCAGACCC | -0.0839 ± 0.024
157 | CGGCAGCC | -0.00839 ± 0.048
158 | AATCTTAC | -0.173 ± 0.073
159 | AGTCCATA | -0.295 ± 0.063
160 | GATCCGAC | -0.046 ± 0.0029
161 | ACTCGGCT | -0.119 ± 0.011
162 | ATCCACCG | -0.256 ± 0.034
163 | CCCTTGAA | -0.329 ± 0.043
164 | ACCGCTAT | 0.039 ± 0.053
165 | TAAGGAGA | -0.251 ± 0.02
166 | ATTTGTGC | -0.113 ± 0.04
167 | CCACCTGG | 0.186 ± 0.029
168 | ATGTTTCG | -0.12 ± 0.029
169 | CGTGGTAA | 0.113 ± 0.033
170 | GCAATGCA | -0.052 ± 0.022
171 | AGAGCCTG | -0.165 ± 0.021
172 | ACTGGTTG | 0.0108 ± 0.018
